cAMP reporter score and surface expression score data for 4 variants are collected here from the GPR68 mutational scans of Howard et al. (2025).

The chains are these.
B1: GPR68, Q15743 (parent)
chain: MGNITADNSSMSCTIDHTIHQTLAPVVYVTVLVVGFPANCLSLYFGYLQIKARNELGVYLCNLTVADLFYICSLPFWLQYVLQHDNWSHGDLSCQVCGILLYENIYISVGFLCCISVDRYLAVAHPFRFHQFRTLKAAVGVSVVIWAKELLTSIYFLMHEEVIEDENQHRVCFEHYPIQAWQRAINYYRFLVGFLFPICLLLASYQGILRAVRRSHGTQKSRKDQIQRLVLSTVVIFLACFLPYHVLLLVRSVWEASCDFAKGVFNAYHFSLLLTSFNCVADPVLYCFVSETTHRDLARLRGACLAFLTCSRTGRAREAYPLGAPEASGKSGAQGEEPELLTKLHPAFQTPNSPGSGGFPTGRLA

Variants of B1 are the subject of data set [1]. Description: cAMP reporter score (Enrich2 score, wild type = 0); higher = more signal; HEK293T, FACS bins.
The variants in data set [2] derive from B1. Description: surface expression score (Enrich2 score, wild type = 0); higher = more signal; HEK293T, FACS bins.

Scores with a large standard error are left out. Not listed are two conditions whose scores span a narrow range. Read del as a deletion of the residues named and ins as an insertion between two positions. For some assays here: How much ogerin was present is not stated here.

In the case of MGNITADNSSMMCTIDHTIHQTLAPVVYVTVLVVGFPANCLSLYFGYLQIKARNELGVYLCNLTVADLFYICSLPFWLQYVLQHDNWSHGDLSCQVCGILLYENIYISVGFLCCISVDRYLAVAHPFRFHQFRTLKAAVGVSVVIWAKELLTSIYFLMHEEVIEDENQHRVCFEHYPIQAWQRAINYYRFLVGFLFPICLLLASYQGILRAVRRSHGTQKSRKDQIQRLVLSTVVIFLACFLPYHVLLLVRSVWEASCDFAKGVFNAYHFSLLLTSFNCVADPVLYCFVSETTHRDLARLRGACLAFLTCSRTGRAREAYPLGAPEASGKSGAQGEEPELLTKLHPAFQTPNSPGSGGFPTGRLA [S12M], the cAMP reporter score in data set [1] (pH 5.5) was 1.87; in data set [1] (pH 6), 2.72; in data set [1] (pH 6, modulator: ogerin), 1.86; in data set [1] (pH 6.5, modulator: ogerin) it was 2.63. Also, the surface expression score in data set [2] came out at 1.61.

Regarding MGNITADNSSMKCTIDHTIHQTLAPVVYVTVLVVGFPANCLSLYFGYLQIKARNELGVYLCNLTVADLFYICSLPFWLQYVLQHDNWSHGDLSCQVCGILLYENIYISVGFLCCISVDRYLAVAHPFRFHQFRTLKAAVGVSVVIWAKELLTSIYFLMHEEVIEDENQHRVCFEHYPIQAWQRAINYYRFLVGFLFPICLLLASYQGILRAVRRSHGTQKSRKDQIQRLVLSTVVIFLACFLPYHVLLLVRSVWEASCDFAKGVFNAYHFSLLLTSFNCVADPVLYCFVSETTHRDLARLRGACLAFLTCSRTGRAREAYPLGAPEASGKSGAQGEEPELLTKLHPAFQTPNSPGSGGFPTGRLA [S12K], the cAMP reporter score in data set [1] (pH 5.5) is -0.183; in data set [1] (pH 6), 0.548; in data set [1] (pH 6, modulator: ogerin), -0.053; in data set [1] (pH 6.5, modulator: ogerin) it was 0.628. Moreover, the surface expression score in data set [2] amounted to 1.06.

MGNITADNSSMNCTIDHTIHQTLAPVVYVTVLVVGFPANCLSLYFGYLQIKARNELGVYLCNLTVADLFYICSLPFWLQYVLQHDNWSHGDLSCQVCGILLYENIYISVGFLCCISVDRYLAVAHPFRFHQFRTLKAAVGVSVVIWAKELLTSIYFLMHEEVIEDENQHRVCFEHYPIQAWQRAINYYRFLVGFLFPICLLLASYQGILRAVRRSHGTQKSRKDQIQRLVLSTVVIFLACFLPYHVLLLVRSVWEASCDFAKGVFNAYHFSLLLTSFNCVADPVLYCFVSETTHRDLARLRGACLAFLTCSRTGRAREAYPLGAPEASGKSGAQGEEPELLTKLHPAFQTPNSPGSGGFPTGRLA [S12N]: the cAMP reporter score in data set [1] (pH 5.5) was -0.205; in data set [1] (pH 6), -0.478; in data set [1] (pH 6, modulator: ogerin) it was -0.488; in data set [1] (pH 6.5, modulator: ogerin), 0.016. The surface expression score in data set [2] amounted to 0.028.

Turning to MGNITADNSSMLCTIDHTIHQTLAPVVYVTVLVVGFPANCLSLYFGYLQIKARNELGVYLCNLTVADLFYICSLPFWLQYVLQHDNWSHGDLSCQVCGILLYENIYISVGFLCCISVDRYLAVAHPFRFHQFRTLKAAVGVSVVIWAKELLTSIYFLMHEEVIEDENQHRVCFEHYPIQAWQRAINYYRFLVGFLFPICLLLASYQGILRAVRRSHGTQKSRKDQIQRLVLSTVVIFLACFLPYHVLLLVRSVWEASCDFAKGVFNAYHFSLLLTSFNCVADPVLYCFVSETTHRDLARLRGACLAFLTCSRTGRAREAYPLGAPEASGKSGAQGEEPELLTKLHPAFQTPNSPGSGGFPTGRLA [S12L], the cAMP reporter score in data set [1] (pH 5.5) is -0.8; in data set [1] (pH 6), -1.19; in data set [1] (pH 6, modulator: ogerin), -0.995; in data set [1] (pH 6.5, modulator: ogerin), 0.374. Besides, the surface expression score in data set [2] is -1.02.
